The other results are listed elsewhere or left out.
Key:
HSkMC = human skeletal muscle cells; test: cytotoxicity call (relative viability < 0.9); details: 10 µM
HepG2 = test: cytotoxicity call (relative viability < 0.9); details: 10 µM
S. aureus RN4220 = test: growth inhibition call (relative growth <= 0.2); details: 50 µM

Row | Compound | cytotoxicity call (HSkMC) | cytotoxicity call (HepG2) | growth inhibition call (S. aureus RN4220)
1 | COc1ccc2c3c([nH]c2c1)[C@@H](CO)N(C[C@]13CN(C1)S(=O)(=O)C)C(=O)C1CC1 | inactive | inactive | inactive
2 | CCC(=O)OCC(=O)C1(OC(=O)CC)C(C)CC2C3CCC4=CC(=O)C=CC4(C)C3(Cl)C(O)CC21C (stereo not given) | inactive | inactive | inactive
3 | C[C@@H]1CN([C@H](C)CO)C(=O)c2cccc(N(C)C)c2O[C@@H]1CN(C)S(C)(=O)=O | inactive | inactive | inactive
4 | O=S(=O)(NCCN(C/C=C/c1ccc(F)cc1)C/C=C/c1ccc(F)cc1)c1cccc2cnccc12 | inactive | inactive | inactive
5 | C[C@@H]1CCCCO[C@H](CN(C)S(=O)(=O)c2ccc(F)cc2)[C@H](C)CN([C@H](C)CO)C(=O)c2cc(NC(=O)CCC(F)(F)F)ccc2O1 | inactive | inactive | inactive
6 | COc1ccc(CN(C)C[C@H]2OCCCC[C@@H](C)Oc3ccc(NC(=O)Nc4ccc(OC)cc4)cc3C(=O)N([C@@H](C)CO)C[C@@H]2C)cc1 | inactive | inactive | inactive
7 | Cc1noc(C)c1S(=O)(=O)N(C)C[C@@H]1OCCCC[C@@H](C)Oc2ccc(NC(=O)CCCCCC(=O)Nc3ccccc3N)cc2C(=O)N([C@H](C)CO)C[C@@H]1C | inactive | inactive | inactive
8 | C[C@@H]1CN([C@H](C)CO)C(=O)c2cc(NS(=O)(=O)c3ccccc3)ccc2O[C@@H](C)CCCCO[C@H]1CN(C)C(=O)Nc1ccc(C(F)(F)F)cc1 | inactive | inactive | inactive
9 | O=C(O)CCNC(=O)c1ccccc1 | inactive | inactive | inactive
10 | O=C(Cc1ccc(-c2ccccc2)cc1)N[C@@H]1CCOC1.O=C(Cc1ccc(-c2ccccc2)cc1)N[C@H]1CCOC1 | inactive | inactive | inactive
11 | O=C(O[C@@H]1Cc2c(O)cc(O)cc2O[C@@H]1c1cc(O)c(O)c(O)c1-c1c([C@H]2Oc3cc(O)cc(O)c3C[C@H]2O)cc(O)c(O)c1O)c1cc(O)c(O)c(O)c1 | inactive | inactive | inactive
12 | NNC(=O)CN1CCCc2ccccc21 | inactive | inactive | inactive
13 | COc1ccc(S(=O)(=O)N(C)C[C@H]2Oc3ccc(NS(=O)(=O)c4ccccc4)cc3C(=O)N([C@H](C)CO)C[C@H]2C)cc1 | inactive | inactive | inactive
14 | C[C@@H]1CN([C@H](C)CO)C(=O)Cc2cc(NS(=O)(=O)c3ccccc3)ccc2O[C@@H]1CN(C)Cc1ccc2c(c1)OCO2 | inactive | inactive | inactive
15 | C[C@@H]1CN([C@H](C)CO)C(=O)c2cc(C#Cc3ccccn3)cnc2O[C@@H]1CN(C)C(=O)c1cnccn1 | inactive | inactive | inactive
16 | CO[C@@H]1CN(C)C(=O)c2ccc(NC(=O)C3CC3)cc2OC[C@@H](C)N(C(=O)CN2CCOCC2)C[C@H]1C | inactive | inactive | inactive
17 | C[C@H]1CN([C@@H](C)CO)C(=O)c2cc(NC(=O)CCN3CCOCC3)ccc2O[C@H]1CN(C)S(=O)(=O)c1ccc(F)cc1 | inactive | inactive | inactive
18 | Cc1ccc(S(=O)(=O)N(C)C[C@@H]2Oc3c(NC(=O)C4CCOCC4)cccc3C(=O)N([C@H](C)CO)C[C@H]2C)cc1 | inactive | inactive | inactive
19 | COc1ccc(S(=O)(=O)Nc2ccc3c(c2)CC(=O)N([C@@H](C)CO)C[C@@H](C)[C@H](CN(C)Cc2ccc(-c4ccccc4)cc2)O3)cc1 | inactive | active | inactive
20 | CCCN(C)C[C@H]1OCCCC[C@@H](C)Oc2ccc(NC(=O)Nc3ccccc3)cc2C(=O)N([C@H](C)CO)C[C@@H]1C | inactive | inactive | inactive
21 | C[C@@H]1CN([C@@H](C)CO)C(=O)c2cccc(NS(=O)(=O)c3cn(C)cn3)c2O[C@H]1CN(C)CC1CC1 | inactive | inactive | inactive
22 | CC(C)(N)c1cc(C(=O)N[C@@H]2CCc3ccc(Oc4ccnc5c4CCC(=O)N5)cc3C2)cc(C(F)(F)F)c1 | inactive | active | inactive
23 | CN(C)CCCNC(=O)C[C@H]1CC[C@@H]2[C@@H](COc3ccc(NC(=O)c4cccc(F)c4)cc3C(=O)N2C)O1 | inactive | inactive | inactive
24 | COc1cc(OC)c(NC(=O)Cn2c(=O)n(-c3ccc(CC(=O)NC[C@H]4CCCO4)cc3)c(=O)c3ccccc32)cc1Cl | inactive | inactive | inactive
25 | C[C@@H]1CCCCO[C@@H](CN(C)Cc2ccc(C(=O)O)cc2)[C@H](C)CN([C@H](C)CO)C(=O)c2cc(NC(=O)C3CCCCC3)ccc2O1 | inactive | inactive | inactive
